Results reported in the GPR68 mutational scans of Howard et al. (2025).
Scores whose standard error is large were omitted. Two further conditions of the source, in which the scores hardly spread, are not listed. Read del as a deletion of the residues named and ins as an insertion between two positions. For some assays here: The data file names ogerin without a concentration.

B1: GPR68, Q15743 (parent)
chain: MGNITADNSSMSCTIDHTIHQTLAPVVYVTVLVVGFPANCLSLYFGYLQIKARNELGVYLCNLTVADLFYICSLPFWLQYVLQHDNWSHGDLSCQVCGILLYENIYISVGFLCCISVDRYLAVAHPFRFHQFRTLKAAVGVSVVIWAKELLTSIYFLMHEEVIEDENQHRVCFEHYPIQAWQRAINYYRFLVGFLFPICLLLASYQGILRAVRRSHGTQKSRKDQIQRLVLSTVVIFLACFLPYHVLLLVRSVWEASCDFAKGVFNAYHFSLLLTSFNCVADPVLYCFVSETTHRDLARLRGACLAFLTCSRTGRAREAYPLGAPEASGKSGAQGEEPELLTKLHPAFQTPNSPGSGGFPTGRLA

Key:
[1] = variants of: B1; assay: cAMP reporter score (Enrich2 score, wild type = 0); higher = more signal; HEK293T, FACS bins
[2] = variants of: B1; assay: surface expression score (Enrich2 score, wild type = 0); higher = more signal; HEK293T, FACS bins

Variant	cAMP reporter score ([1]; pH 5.5)	cAMP reporter score ([1]; pH 6)	cAMP reporter score ([1]; pH 6, modulator: ogerin)	cAMP reporter score ([1]; pH 6.5, modulator: ogerin)	surface expression score [2]
MGNITADNSSMSCTIDHTIHQTLAPVVYVTVLVVGFPANCLSLYFGYLQIKARNELGVYLCNLTVADLFYICSLPFWLQYVLQQDNWSHGDLSCQVCGILLYENIYISVGFLCCISVDRYLAVAHPFRFHQFRTLKAAVGVSVVIWAKELLTSIYFLMHEEVIEDENQHRVCFEHYPIQAWQRAINYYRFLVGFLFPICLLLASYQGILRAVRRSHGTQKSRKDQIQRLVLSTVVIFLACFLPYHVLLLVRSVWEASCDFAKGVFNAYHFSLLLTSFNCVADPVLYCFVSETTHRDLARLRGACLAFLTCSRTGRAREAYPLGAPEASGKSGAQGEEPELLTKLHPAFQTPNSPGSGGFPTGRLA [H84Q]	0.592	-0.032	0.297	-0.445	0.951
MGNITADNSSMSCTIDHTIHQTLAPVVYVTVLVVGFPANCLSLYFGYLQIKARNELGVYLCNLTVADLFYICSLPFWLQYVLQRDNWSHGDLSCQVCGILLYENIYISVGFLCCISVDRYLAVAHPFRFHQFRTLKAAVGVSVVIWAKELLTSIYFLMHEEVIEDENQHRVCFEHYPIQAWQRAINYYRFLVGFLFPICLLLASYQGILRAVRRSHGTQKSRKDQIQRLVLSTVVIFLACFLPYHVLLLVRSVWEASCDFAKGVFNAYHFSLLLTSFNCVADPVLYCFVSETTHRDLARLRGACLAFLTCSRTGRAREAYPLGAPEASGKSGAQGEEPELLTKLHPAFQTPNSPGSGGFPTGRLA [H84R]	0.557	-0.88	-0.382	-0.725	2
MGNITADNSSMSCTIDHTIHQTLAPVVYVTVLVVGFPANCLSLYFGYLQIKARNELGVYLCNLTVADLFYICSLPFWLQYVLQSDNWSHGDLSCQVCGILLYENIYISVGFLCCISVDRYLAVAHPFRFHQFRTLKAAVGVSVVIWAKELLTSIYFLMHEEVIEDENQHRVCFEHYPIQAWQRAINYYRFLVGFLFPICLLLASYQGILRAVRRSHGTQKSRKDQIQRLVLSTVVIFLACFLPYHVLLLVRSVWEASCDFAKGVFNAYHFSLLLTSFNCVADPVLYCFVSETTHRDLARLRGACLAFLTCSRTGRAREAYPLGAPEASGKSGAQGEEPELLTKLHPAFQTPNSPGSGGFPTGRLA [H84S]	0.44	-0.61	0.168	0.066	0.357
MGNITADNSSMSCTIDHTIHQTLAPVVYVTVLVVGFPANCLSLYFGYLQIKARNELGVYLCNLTVADLFYICSLPFWLQYVLQTDNWSHGDLSCQVCGILLYENIYISVGFLCCISVDRYLAVAHPFRFHQFRTLKAAVGVSVVIWAKELLTSIYFLMHEEVIEDENQHRVCFEHYPIQAWQRAINYYRFLVGFLFPICLLLASYQGILRAVRRSHGTQKSRKDQIQRLVLSTVVIFLACFLPYHVLLLVRSVWEASCDFAKGVFNAYHFSLLLTSFNCVADPVLYCFVSETTHRDLARLRGACLAFLTCSRTGRAREAYPLGAPEASGKSGAQGEEPELLTKLHPAFQTPNSPGSGGFPTGRLA [H84T]	0.517	-0.023	-1.61	-0.248	1.28
